Laboratory results from the antibiotic and cytotoxicity screens of Wong et al. (2023).
The list shows a part of the results.

Experiments:
HSkMC = human skeletal muscle cells; test: cytotoxicity call (relative viability < 0.9); conditions: 10 µM
HepG2 = test: cytotoxicity call (relative viability < 0.9); conditions: 10 µM
S. aureus RN4220 = test: growth inhibition call (relative growth <= 0.2); conditions: 50 µM

| Structure (SMILES) | cytotoxicity call (HSkMC) | cytotoxicity call (HepG2) | growth inhibition call (S. aureus RN4220) |
| --- | --- | --- | --- |
| C[C@@H]1CCCCO[C@@H](CN(C)C(=O)Nc2cccc3ccccc23)[C@@H](C)CN([C@H](C)CO)C(=O)c2cc(NC(=O)Nc3ccc4c(c3)OCO4)ccc2O1 | inactive | inactive | inactive |
| C[C@@H]1CN([C@@H](C)CO)C(=O)c2cc(NC(=O)CCC(F)(F)F)ccc2O[C@@H](C)CCCCO[C@H]1CN(C)S(=O)(=O)c1cccs1 | inactive | inactive | inactive |
| OCCOCc1nnn2c1CN(c1ncccn1)CCC2 | inactive | inactive | inactive |
| COc1ccc(S(=O)(=O)Nc2ccc3c(c2)C(=O)N([C@@H](C)CO)C[C@@H](C)[C@@H](CN(C)C(=O)Nc2ccc(C(F)(F)F)cc2)OCCCC[C@H](C)O3)cc1 | inactive | inactive | inactive |
| C[C@@H]1CN([C@@H](C)CO)C(=O)c2cc(NS(=O)(=O)c3ccc(F)cc3)ccc2O[C@@H]1CN(C)Cc1ccc(Oc2ccccc2)cc1 | active | active | inactive |
| CC(=O)NS(=O)(=O)c1ccc(N)cc1 | inactive | active | inactive |
| CC(=O)C1CCC2C3CC=C4CC(O)CCC4(C)C3CCC12C (configuration not stated) | inactive | inactive | inactive |
| COc1ccc(CN(C)C[C@@H]2Oc3ccc(NS(=O)(=O)c4cn(C)cn4)cc3CC(=O)N([C@@H](C)CO)C[C@H]2C)cc1 | inactive | inactive | inactive |
| CNC(=O)c1cccc(CN)c1 | inactive | inactive | inactive |
